{"source": "PubChem BioAssay AID1963576", "about": "(National Center for Advancing Translational Sciences (NCATS), 2024)", "note": "About 60 (0.1%) of roughly 46,000 compounds were called active. Inconclusive results (about 3%) are left out. Calls follow the shape of the dose curve; as a rule, active = well fitted inhibition curve with a large enough effect; inconclusive = small, poorly fitted or top-dose-only effect; inactive = no such curve, though single readings can be large or run the other way. The list shows a part of the results.", "data": [{"test": "Primary qHTS assay for Inhibitors of ovarian cancer metastasis using an organotypic tumor microenvironment (TME) model; also: nearly all actives have a fitted effect of over 65% in size;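 as to activity change, negative = inhibition: plate controls were DMSO wells for no effect and tomatine positive control wells for full effect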.", "conditions": "SKOV3ip1-GFP adhesion/invasion on 3D omental model, fluorescence; series mostly up to 45.8 µM; activity change, negative = inhibition: at the top concentration", "outline": "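A 3D layer of primary human omental fibroblasts, mesothelial cells, fibronectin and collagen I, grown 48 hr, received SKOV3ip1-GFP cells in serum-free medium plus compounds at 0.36-46 umol/L. After 2 hr RT and 16 hr 37 C, fixed adherent GFP cells were counted; normalized to DMSO and tomatine.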", "values": [{"smiles": "Cc1ccccc1-c1nc2cc(NC(=O)COc3ccc(F)cc3)ccc2o1", "activity change, negative = inhibition": "inactive: -1.59%"}, {"smiles": "COC(=O)C1=C(C)NC(C)=C(C(=O)OCCN2CCN(C(c3ccccc3)c3ccccc3)CC2)C1c1cccc([N+](=O)[O-])c1", "note": "(stereo not drawn)", "activity change, negative = inhibition": "inactive: -6.15%"}, {"smiles": "CCOc1ccc(CNC(=O)c2ccc(Sc3ccc(Cl)cc3)c(NC(C)=O)c2)cc1OC", "activity change, negative = inhibition": "inactive: 1.63%"}, {"smiles": "O=C(NCCc1ccccc1)c1ccc2c(c1)N(Cc1ccccc1F)C(=O)c1ccccc1S2=O", "note": "(stereo not drawn)", "outcome": "inactive"}, {"smiles": "O=c1c(N2CCc3ccccc3C2)csc2ccccc12", "activity change, negative = inhibition": "inactive: -14.9%"}, {"smiles": "CC(=O)Nc1ccc(NC(=O)c2oc3ccc4c(c3c2C)C(=O)CC(C)(C)O4)cc1", "outcome": "inactive"}, {"smiles": "Cc1ccc(C2CCN(C(=O)c3cnn(-c4ccc(C)cc4)c3C3CCN(C(=O)OC(C)(C)C)CC3)C2)cc1", "note": "(stereo not drawn)", "activity change, negative = inhibition": "inactive: 6.13%"}, {"smiles": "CC1=C(C(=O)Nc2cccnc2)C(c2ccccc2)n2nc(-c3ccc(O)cc3)nc2N1", "note": "(stereo not drawn)", "activity change, negative = inhibition": "inactive: -5.21%"}, {"smiles": "CC(=O)N1CCCc2cc(S(=O)(=O)N3CCCC(C(=O)Nc4cc(Cl)ccc4C)C3)ccc21", "note": "(stereo not drawn)", "activity change, negative = inhibition": "inactive: -5.87%"}, {"smiles": "COc1ccc(NC(=O)c2ccc3c(=O)n4nc(Nc5cccc(Cl)c5C)sc4nc3c2)cc1", "activity change, negative = inhibition": "inactive: 0.528%"}, {"smiles": "CCOc1ccc(-c2nc3c(c(SCC(=O)N4CCCCC4)n2)Cc2ccccc2O3)cc1", "activity change, negative = inhibition": "inactive: 3.33%"}, {"smiles": "O=C(C1CCCN(S(=O)(=O)c2ccc(Br)s2)C1)N1CCN(c2ccccc2)CC1", "note": "(stereo not drawn)", "activity change, negative = inhibition": "inactive: 11.6%"}, {"smiles": "CNC(=O)C1CCC(Cn2c(=O)c3sccc3n(CC(=O)NCc3ccc(F)cc3)c2=O)CC1", "note": "(stereo not drawn)", "activity change, negative = inhibition": "inactive: 10.4%"}, {"smiles": "Cc1ccc(-c2ccc(=O)n(CC(=O)Nc3cccc(C#N)c3)n2)cc1", "outcome": "inactive"}, {"smiles": "CCOc1ccccc1NS(=O)(=O)c1ccc(-c2cnc(C3CC3)o2)cc1", "activity change, negative = inhibition": "inactive: 9.53%"}, {"smiles": "Cc1ccc(-c2csc(=Nc3ccc(F)cc3)n2Cc2ccc3c(c2)OCO3)cc1C", "activity change, negative = inhibition": "inactive: -4.7%"}, {"smiles": "Cc1c(Cl)cccc1NC(=O)c1ncn(-c2ccccc2)n1", "activity change, negative = inhibition": "inactive: -5.78%"}, {"smiles": "Cc1ccc(NS(=O)(=O)c2ccc3c(c2)CCCN3C(=O)C2CCC2)cc1Cl", "activity change, negative = inhibition": "inactive: -3.96%"}, {"smiles": "Cc1ccc(NC(=O)CN2C(=O)C3(SCC(=O)N3c3cccc(Cl)c3)c3ccccc32)cc1C", "note": "(stereo not drawn)", "outcome": "inactive"}, {"smiles": "Cc1nn(-c2ccccc2)c2sc(C(=O)Nc3ccccc3Br)cc12", "outcome": "inactive"}, {"smiles": "COc1ccc(CCNC(=O)CSc2nc(-c3ccc(F)cc3)cc(C(F)(F)F)n2)cc1OC", "outcome": "inactive"}, {"smiles": "Cc1cccc(C(=O)Nc2nnc(S(=O)(=O)N(C)Cc3ccco3)s2)c1", "outcome": "inactive"}, {"smiles": "Cc1ccc(NC(=O)CCS(=O)(=O)c2cc3c4c(c2)CCN4C(=O)CC3)c(C)c1", "activity change, negative = inhibition": "inactive: 22.1%"}, {"smiles": "O=C(NCc1ccc2c(c1)CCN2C(=O)c1ccc(Cl)cc1)c1cccc(F)c1", "outcome": "inactive"}, {"smiles": "CCc1noc(-c2ccc(N3CCCCC3C)c([N+](=O)[O-])c2)n1", "note": "(stereo not drawn)", "outcome": "inactive"}, {"smiles": "O=C(Nc1nnc(S(=O)(=O)Nc2ccccc2)s1)c1ccccc1Cl", "activity change, negative = inhibition": "inactive: -5.11%"}, {"smiles": "COCCNc1nc2c(S(=O)(=O)c3ccc(C)c(C)c3)nnn2c2ccc(Cl)cc12", "activity change, negative = inhibition": "inactive: 6.66%"}, {"smiles": "Cc1nc2nncn2c(NCc2ccc(F)cc2)c1C", "activity change, negative = inhibition": "inactive: 5.44%"}, {"smiles": "COc1cc(OC)cc(C(=O)Nc2ccc(S(=O)(=O)Nc3ncccn3)cc2)c1", "activity change, negative = inhibition": "inactive: -9.4%"}, {"smiles": "CCC(Oc1ccccc1)C(=O)Nc1cc(-c2ccccc2OC)nn1-c1ccccc1", "note": "(stereo not drawn)", "outcome": "inactive"}, {"smiles": "CCCCN(C)C(=O)C1CCC(CNS(=O)(=O)c2ccc(Cl)cc2)CC1", "note": "(stereo not drawn)", "activity change, negative = inhibition": "inactive: -0.0155%"}, {"smiles": "Cc1ccc(CS(=O)(=O)c2ncc(Cl)c(C(=O)Nc3nc4ccc(F)cc4s3)n2)cc1", "activity change, negative = inhibition": "inactive: -9.4%"}, {"smiles": "CCOC(=O)c1c(S(=O)(=O)NCC(=O)NCc2cccc(C)c2)c(C)n(C)c1C", "activity change, negative = inhibition": "inactive: 1.43%"}, {"smiles": "Cc1ccc(-c2nc3c(c(SCC(=O)Nc4ccccc4Cl)n2)Cc2c(CO)cnc(C)c2O3)cc1", "activity change, negative = inhibition": "inactive: 16.2%"}, {"smiles": "CN(Cc1ccccc1)c1ncnc2onc(-c3ccc(F)cc3)c12", "outcome": "inactive"}, {"smiles": "O=C(NCc1ccc(F)cc1)c1c(O)nc2ccccn2c1=O", "activity change, negative = inhibition": "inactive: -28.3%"}, {"smiles": "Cc1cc(Nc2cccc(C(F)(F)F)c2)nc2ccc(NC(=O)c3ccc(=O)[nH]c3)cc12", "activity change, negative = inhibition": "inactive: -4.24%"}, {"smiles": "CCCCOc1cccc(NC(=O)CSc2nnc(C)s2)c1", "outcome": "inactive"}, {"smiles": "O=C(OCC1CCCO1)c1ccc2c(c1)N(Cc1ccccc1Cl)C(=O)c1ccccc1S2(=O)=O", "note": "(stereo not drawn)", "outcome": "inactive"}, {"smiles": "O=C(Nc1ccc2oc(-c3ccc4ccccc4c3)nc2c1)c1ccccc1F", "outcome": "inactive"}, {"smiles": "CCOc1ccc(-n2c(=O)c3c4c(sc3n(CC(=O)Nc3cccc(C(F)(F)F)c3)c2=O)CCCCC4)cc1", "activity change, negative = inhibition": "inactive: -16.6%"}, {"smiles": "O=C(COc1ccccc1)Nc1nnc(S(=O)(=O)N2CCCC2)s1", "activity change, negative = inhibition": "inactive: 2.98%"}, {"smiles": "Cc1ccc2c(=O)cc(CSCC(=O)Nc3nnc(C)s3)[nH]c2c1", "activity change, negative = inhibition": "inactive: -19.3%"}, {"smiles": "COc1ccc(Br)cc1C1Sc2ccccc2NC2=C1C(=O)c1ccccc12", "note": "(stereo not drawn)", "activity change, negative = inhibition": "inactive: -0.974%"}, {"smiles": "O=C(Nc1cccc(Cl)c1)c1cnc[nH]1", "outcome": "inactive"}, {"smiles": "CC(NC(=O)CCNS(=O)(=O)c1cccc2nsnc12)c1ccccc1", "note": "(stereo not drawn)", "outcome": "inactive"}, {"smiles": "COc1ccc(NC(=O)COc2ccc(S(=O)(=O)NC3CCCCC3)cc2)cc1OC", "activity change, negative = inhibition": "inactive: -4.08%"}, {"smiles": "O=C(Nc1ccccc1)c1ccc(Br)c(S(=O)(=O)N2CCCCC2)c1", "activity change, negative = inhibition": "inactive: 3.21%"}]}]}
